# According to PubChem BioAssay AID624296 (National Center for Advancing Translational Sciences (NCATS), 2012):
# Hit rate of the full screen: of about 350,000 compounds, about 9,900 (2.8%) were called active. The shares of active, inactive and inconclusive entries below differ from those in the screen. Calls follow the shape of the dose curve; as a rule, active = well fitted activation curve with a large enough effect; inconclusive = small, poorly fitted or top-dose-only effect; inactive = no such curve, though single readings can be large or run the other way. Potencies of inconclusive entries are left out as doubtful fits.
# Assay: A quantitative high throughput screen for small molecules that induce DNA re-replication in MCF 10a normal breast cells. Also: nearly all actives have a fitted effect of over 50% in size. As to activity, positive = re-replication: % of control where 0% means no effect.
# Conditions: MCF 10A DNA re-replication, Hoechst nuclear intensity, 48 h; activity, positive = re-replication: at 46.1 µM (top of the series)
# Potency is read from the fitted curve at half-maximal effect; tags tell the direction and shape of the fitted curve.
Compound,Potency,"activity, positive = re-replication"
CC(C)c1ccc(C2CC(=O)c3cnc(N4CCc5ccccc5C4)nc3C2)cc1 (stereo not given),"inconclusive [activator, partial curve, poor fit]",–
FC(F)(F)c1cc(CCN2CCNC[C@@H]2Cc2ccccc2)cc(C(F)(F)F)c1,"inconclusive [activator, single point]",–
COC(=O)CSc1[nH]c2cc(C)ccc2c1[N+](=O)[O-],"inconclusive [activator, single point]",–
COc1ccc(/C=N\NC(=O)c2ccccc2Br)cc1COc1ccc(F)cc1,"inconclusive [activator, partial curve, poor fit]",–
O=C(CCC(=O)c1ccc(Oc2ccccc2)cc1)Nc1cccc(Cl)c1Cl,"inconclusive [activator, partial curve, poor fit]",–
CC(C)(C)n1nnnc1C(c1ccccc1F)N1CCN(C2CCCC2)CC1 (stereo not given),"inconclusive [activator, partial curve, poor fit]",–
COc1cc(-c2nc(-c3ccccc3)c(-c3cccs3)[nH]2)cc(OC)c1O,"inconclusive [activator, single point]",–
Cc1ccc(C(=O)N2CCc3cc4c(cc3C2C)OCCCO4)cc1 (stereo not given),"inconclusive [activator, single point]",–
O=c1[nH]c2ccccc2cc1CN(c1ccccc1)S(=O)(=O)c1ccccc1,"inconclusive [activator, full curve, poor fit]",–
COc1cc(/C=C2\N=C(C)OC2=O)cc(Cl)c1OC(C)=O,–,inactive: -3.85%
Cc1nn(Cc2ccc(F)cc2)c(Cl)c1/C=N/NC(=O)c1ccccc1,"inconclusive [activator, partial curve, poor fit]",–
Cc1cc(NC(=O)c2ccc(S(=O)(=O)N3CCc4ccccc43)cc2)no1,–,inactive: -5.75%
O=C(COC(=O)c1nsc(Cl)c1Cl)NC1CCCC1,"inconclusive [activator, single point]",–
O=C(C1CCCN(S(=O)(=O)c2ccccc2)C1)N1CCCc2ccccc21 (stereo not given),"inconclusive [activator, partial curve, poor fit]",–
N#Cc1cc(-c2ccc(Cl)cc2)cnc1Sc1ccc(F)cc1,active: 14.6 µM,–
O=C(CBr)c1ccc([N+](=O)[O-])c(CS(=O)(=O)c2ccc(Cl)cc2)c1,"inconclusive [activator, single point]",–
CCn1c(/C=C/c2ccccc2[N+](=O)[O-])nc2ccccc2c1=O,–,inactive: 14.9%
CN1CCO/C1=C(\C(Cl)=C(Cl)Cl)[N+](=O)[O-],–,inactive: -32.8%
O=C(Cc1cc(=O)[nH][nH]1)N/N=C/C=C/c1ccccc1,"inconclusive [activator, single point]",–
Cc1c(C(=O)O)cccc1-c1ccc(/C=C2/NC(=O)N(c3ccccc3)C2=O)o1,"inconclusive [activator, single point]",–
CN(C)c1ccc(/C=N/NC(=O)c2ccc3c(c2)OCCO3)cc1,–,inactive: -18.4%
Cc1ccc(C)c(S(=O)(=O)NCCOC(=O)Nc2sc(=S)n(C)c2C)c1,"inconclusive [activator, single point]",–

Compound,Potency,"activity, positive = re-replication"
CCc1ccc(N2CCN(S(=O)(=O)CC34CCC(CC3=O)C4(C)C)CC2)cc1 (stereo not given),"inconclusive [activator, single point]",–
C=CCNc1sc(C(=O)c2ccc(Br)s2)c(N)c1C#N,"inconclusive [activator, partial curve, poor fit]",–
O=C1CCC(c2ccccc2)=NN1Cc1c(F)cccc1Cl,"inconclusive [activator, single point]",–
O=C1CN(C(=O)COc2ccc([N+](=O)[O-])cc2Cl)c2ccccc2N1,–,inactive: 8.11%
Oc1ccc(CN2CCc3ccccc3C2)c2cccnc12,active: 2.31 µM,–
CC1=CN2C(=N)/C(=C/c3cn(CCCOc4ccccc4C)c4ccccc34)C(=O)N=C2S1,–,inactive: 21.6%
CCS(=O)(=O)c1ccc(-c2csc(-c3ccc(Cl)cc3)n2)c(Cl)c1Cl,"inconclusive [activator, partial curve, poor fit]",–
Cc1cnc(NC(=O)Nc2ccc(OCc3ccccc3)cc2)c(Br)c1,"inconclusive [activator, partial curve, poor fit]",–
COc1ccccc1C1C2=C(N=c3s/c(=C/c4cccc(OCC(=O)O)c4)c(=O)n31)c1ccccc1CC2 (stereo not given),"inconclusive [activator, single point]",–
O=C(CCNC(=O)c1ccccc1)NNC(=O)c1ccccc1Br,"inconclusive [activator, single point]",–
CC1(C)Cc2c(C#N)c(SCCC#N)nc(N3CCOCC3)c2CS1,"inconclusive [activator, partial curve]",–
CCOC(=O)c1sc(=S)n(-c2ccc(Cl)cc2)c1C,"inconclusive [activator, partial curve, poor fit]",–
Cc1ccc(-c2sc(C(=O)NN)c(C)c2C#N)cc1,–,inactive: 16.9%
Cc1ccc(NC(=O)C(OC(=O)c2cc(C)oc2C)c2ccccc2)cc1 (stereo not given),"inconclusive [activator, single point]",–
Cc1nc([N+](=O)[O-])c(SCC(N)=O)n1Cc1ccccc1,–,inactive: 10%
CCC1OC(=O)C[C@H](O)C(C)[C@@H](O[C@@H]2OC(C)C(O)C(N(C)C)C2O)C(CCN2CC(C)CC(C)C2)CC(C)C(=O)/C=C/C(C)=C\[C@@H]1COC1OC(C)C(O)C(OC)C1OC (stereo not given in full),–,inactive: -1.48%
N#C/C(=C\c1ccc(Sc2nc3ccccc3[nH]2)o1)c1ccccc1,"inconclusive [activator, full curve, poor fit]",–
CC1(C)Cc2c(C#N)c(N3CCN(C(=O)c4ccco4)CC3)nc(-c3ccco3)c2CS1,"inconclusive [activator, single point]",–
Cc1ccc(NC(=O)COC(=O)C2(CC(=O)NC(C)(C)C)CCCC2)cc1C,–,inactive: 21.3%
COCC(C)N1C(=O)Cc2c1nc(N)c1c(N)nc(N3CCN(c4ccccc4F)CC3)c(C#N)c21 (stereo not given),active: 11.6 µM,–
COc1ccc(OC)c(N(CC(=O)NCCSCc2ccco2)S(=O)(=O)c2ccccc2)c1,"inconclusive [activator, partial curve]",–
CC(C)Oc1ccc(CNC(=S)N/N=C/c2cccnc2)cc1,"inconclusive [activator, single point]",–

Compound,Potency,"activity, positive = re-replication"
COc1ccc(-c2nn(-c3ccccc3)cc2CNCCN2CCOC2=O)c(F)c1,–,inactive: -10.2%
O=C(c1cc(-c2ccccc2)nc2ccccc12)N1CCN(c2ccccn2)CC1,"inconclusive [activator, full curve, poor fit]",–
CCOc1ccccc1CN1CCC(Oc2ccc(C(=O)NCc3ccccn3)cc2)CC1,"inconclusive [activator, partial curve, poor fit]",–
COc1ccc2oc(C(=O)Nc3nc(-c4ccccn4)cs3)c(C)c2c1,"inconclusive [activator, single point]",–
CCOC(=O)C1(Cc2cccc(F)c2)CCN(Cc2cnn(CC)c2C)CC1,"inconclusive [activator, full curve]",–
Cc1ccc(S(=O)(=O)Nc2cccc(C(=O)N3CCN(c4ccccc4O)CC3)c2)cc1F,"inconclusive [activator, single point]",–
COc1ccccc1NS(=O)(=O)c1cc(C(=O)Nc2ccc(S(=O)(=O)Nc3onc(C)c3C)cc2)ccc1C,–,inactive: -0.373%
CCc1sc(C(=O)NNC(=O)CNC(=O)c2ccccc2F)cc1C,–,inactive: 20.4%
COc1cc(OC)c(S(=O)(=O)Nc2ccccc2NC(=O)CN2CCOCC2)cc1NC(C)=O,"inconclusive [activator, single point]",–
CCOC(=O)c1c(C)oc2c1c(CN1CCN(C(=O)OCC)CC1)c(O)c1ccccc12,"inconclusive [activator, single point]",–
COC(=O)c1[nH]c(C)c(/C(O)=C2\C(=O)C(=O)N(CCN3CCOCC3)C2c2ccccc2OC)c1C (stereo not given),"inconclusive [activator, single point]",–
O=C(NCC1CCCO1)C1CC(=O)N(C2CCCCCC2)C1 (stereo not given),"inconclusive [activator, partial curve]",–
Cc1ccc(NC(=S)NNC(C)(C)C)cc1,–,inactive: -1.16%
Cc1ccc(C(=O)COC(=O)CNC(=O)CNC(=O)c2ccc(C)cc2)cc1,–,inactive: -2.66%
CN(Cc1ccccc1)C(=S)Nc1ccc2nc3n(c(=O)c2c1)CCCCC3,"inconclusive [activator, partial curve, poor fit]",–
O=C(COC(=O)/C=C/c1cnc2ccccc2n1)NCC(F)(F)F,"inconclusive [activator, single point]",–
Cc1ccc(OCC(=O)Nc2cc(S(=O)(=O)N3CCCCC3)ccc2N2CCN(C)CC2)c(C)c1,"inconclusive [activator, partial curve, poor fit]",–
CCOc1cc(C(=O)N2CCC(CC3CC(c4cccc(Br)c4)=NO3)(C(=O)NCC3CCCCC3)CC2)cc(OCC)c1OCC (stereo not given),–,inactive: 13.6%
O=C(CCN1CCCCC1)N=Nc1c(O)[nH]c2ccccc12,active: 3.66 µM,–
CC(OC(=O)CCc1cc(C(C)(C)C)c(O)c(C(C)(C)C)c1)C(=O)NC1CC1 (stereo not given),"inconclusive [activator, single point]",–
COc1ccc(C(=O)/C=C2/C(=O)Nc3ccccc32)cc1,active: 9.2 µM,–
